ChEMBL document CHEMBL1156829
The full ranking holds about 5,400 compounds; the median of “IFI” is about 2, and the highest 2% start at about 22. The list shows a part of the results.

Experiment: NOVARTIS: Inhibition Frequency Index (IFI) - the number of HTS assays where a compound showed > 50% inhibition/induction, expressed as a percentage of the number of assays in which the compound was tested.
Type: functional
For `CCOc1c(Br)cc(C2C(C(=O)OC)=CN(C)C=C2C(=O)OC)cc1OC`, the IFI was 4.6%. For `CSc1cccc([C@@H]2C[C@H]3CN(c4ccccc4)C(=O)[C@]34CCCN24)c1`, the IFI was 0%. `CCN(CC)CCCC(C)Nc1cc(/C=C/c2ccccc2Cl)nc2cc(Cl)ccc12` (stereo not given) showed an IFI of 8.06%. Work on `CCOC(=O)c1ccc(OCC2c3cc(OC)c(OC)cc3CCN2C(=O)c2ccc([N+](=O)[O-])cc2)cc1` (stereo not given) yielded an IFI of 0%. In the case of `COC(=O)C1=C(OC)C(=O)OC12C=CC(=O)C=C2`, the IFI is reported as 20.4%. Work on `Fc1ccc(-c2c[n+](-c3ccccc3)c3n2CCS3)cc1` yielded an IFI of 1.92%. `CCc1c(C#N)c(N)nc(SCC(=O)c2ccc(C)cc2C)c1C#N` gave an IFI of 7.14%. With `COc1ccc2nc(C)cc(Nc3ccc(Oc4ccc5ccccc5c4Cl)c(Cl)c3)c2c1` the IFI was 0%. In the case of `COc1ccc(CN2CSC3=C(C#N)C(c4cccc(OC)c4)CC(=O)N3C2)cc1` (stereo not given), the IFI is reported as 0%. `COc1ccccc1NC(=O)Cn1cnc2sc(C(=O)Nc3ccc(F)cc3)c(C)c2c1=O` showed an IFI of 3.53%. In the case of `CCN(CC)C(CN1CCN(CC(C)C(=O)c2ccc(O)cc2)CC1)c1ccc(F)cc1` (stereo not given), the IFI is reported as 1.05%. `O=C(Nc1cccc(OC(=O)c2ccc([N+](=O)[O-])cc2)c1)c1ccc([N+](=O)[O-])cc1` gave an IFI of 0%. For `N=C(NN=Cc1ccc([N+](=O)[O-])cc1)NN=Cc1ccc([N+](=O)[O-])cc1`, the IFI was 0%. `CCN1/C(=C/c2ccc3ccccc3[n+]2CC)Sc2sc3ccccc3c21` showed an IFI of 18.3%. In the case of `CC(C)(C)NC(=O)C(c1cccs1)N(CCCN1CCOCC1)C(=O)c1ccc(-c2ccccc2)[nH]1` (stereo not given), the IFI is reported as 3.26%. With `COc1cccc(CN2CCc3nc(N4CCCCC4)sc3C2)c1` the IFI was 9.72%. Compound `Cc1ccc(NC(=O)CN2CCN(c3ccccn3)CC2)cc1F` has an IFI of 0%. Compound `COc1ccc(NC(=O)Cn2c(-c3ccc(OC)cc3)cn(-c3ccc(C)cc3)c2=O)cc1` has an IFI of 0%. For `O=[N+]([O-])c1ccc2nc(Nc3ccccc3)c(Nc3ccccc3)nc2c1`, the IFI was 14.3%. `CCn1c(CNc2ccc(Cl)cc2)nnc1SCC(=O)Nc1cccc(C)c1C` gave an IFI of 2.88%. `Oc1ccc(C2Nc3ccc4ccccc4c3C3C=CCC32)cc1` (stereo not given) gave an IFI of 0%. For `CC(=O)Nc1cccc(N(C(=O)C2COc3ccccc3O2)C(C(=O)NC2CCCCC2)c2ccc(O)cc2)c1` (stereo not given), the IFI was 2.08%. Compound `Cc1cc(C)c2nc(NS(=O)(=O)c3cccc(C(=O)O)c3)sc2c1` has an IFI of 0%. In the case of `COc1ccc2[nH]c3c(=O)n(C)cnc3c2c1`, the IFI is reported as 0%. `CSc1nc(SC)c2c3c(sc2n1)CN(C)CC3` showed an IFI of 3.03%. Work on `COc1ccc(CN2CCN(Cc3ccc(OC)c(C)c3C)C(CCO)C2)c(O)c1` (stereo not given) yielded an IFI of 0%. `C=CCNC(=O)CSc1ccc(C(=O)Nc2ccc(Cl)cc2F)cc1[N+](=O)[O-]` gave an IFI of 0%. `COc1ccc(C2CC(=O)C3=C(C2)NC(C)=C(C(=O)OC(C)C)C3c2ccccc2Br)cc1` (stereo not given) showed an IFI of 4.6%. `c1ccc2c(NCCNc3c4ccccc4nc4ccccc34)c3ccccc3nc2c1` showed an IFI of 7.32%. `C=CCN1Cc2ccc(C(=O)NCc3ccccc3)cc2N=C1c1ccc(F)cc1` showed an IFI of 3.9%. `O=C1CC(c2ccccc2)CC2=C1C(c1cc(F)ccc1F)Nc1ccccc1N2` (stereo not given) showed an IFI of 1.21%. In the case of `COc1cc(C=NNc2nc3nonc3nc2Nc2ccc(Cl)cc2)ccc1O`, the IFI is reported as 7.69%. `CCC(C)(C)c1ccc(OCCCC[n+]2ccc(C)cc2)c(C(C)(C)CC)c1` showed an IFI of 7.14%. For `O=C(Nc1ccc2c(c1)OCO2)c1cc2cc(C3(O)CCN(CCCc4ccccc4)CC3)ccc2o1`, the IFI was 5.22%. With `CC1CN(C(=O)C(Cc2c[nH]c3ccccc23)NC(=O)CCl)CCN1C(=O)Nc1ccccc1` (stereo not given) the IFI was 1.87%. Compound `CCOC(=O)c1nnn(-c2nonc2N)c1-c1ccc(Cl)cc1` has an IFI of 0%. Work on `O=C(Nc1nc2ccccc2s1)c1ccc(S(=O)(=O)N2CCOCC2)cc1` yielded an IFI of 5.34%. With `CCCC(=O)N1CCN(C(=O)c2nc(-c3ccccc3)nc(CCC)c2C(=O)OCC)CC1C` (stereo not given) the IFI was 4.63%. `O=C(NCCCCNc1ccnc2cc(Cl)ccc12)C1CCCCC1` gave an IFI of 4.67%. Work on `CC(CC(=O)NCCCCNc1ccnc2cc(Cl)ccc12)CC(C)(C)C` (stereo not given) yielded an IFI of 3.74%. `CCOc1cc(Br)cc(/C=C2\NC(=S)NC2=O)c1O` showed an IFI of 0%. Work on `Cc1ccc(C(=O)NC2CCN(S(=O)(=O)c3c(C)cc(C)cc3C)CC2)cc1` yielded an IFI of 3.85%. For `COC(=O)c1c(-c2c(Cl)cccc2Cl)noc1/C=C/Nc1ccccc1`, the IFI was 2.67%. `COc1ccc2nc(C)cc(Nc3ccc(Oc4ccc(Cl)c5ccccc45)c(Cl)c3)c2c1` gave an IFI of 10.1%. Compound `CC(C)c1ccc(/C=C2/SC(=Nc3ccccc3)NC2=O)cc1` has an IFI of 0%. With `CCN(CC)CCCC(C)Nc1cc(/C=C/c2ccc([N+](=O)[O-])cc2)nc2ccc(OC)cc12` (stereo not given) the IFI was 4.54%. Compound `CCCC(=O)N1CCN(C(=O)c2nc(-c3ccccc3)nc(C(C)C)c2C(=O)OC)CC1C` (stereo not given) has an IFI of 2.78%. Compound `Cc1cc(Nc2ccc([N+](=O)[O-])cc2O)nc2ccccc12` has an IFI of 0%. `COc1ccc(C(=O)Nc2nonc2-c2ccc(OC)c(OC)c2)cc1Cl` showed an IFI of 0%. `O=C(CN1CCN(C(=O)c2ccco2)CC1)Nc1cc(C(F)(F)F)ccc1Cl` gave an IFI of 0%. In the case of `Clc1ccc2[nH]c3c(NCCCN4CCOCC4)ncnc3c2c1`, the IFI is reported as 11.8%. `N#Cc1cn(-c2ccc(Cl)cc2)c(=O)n(Cc2c(Cl)cccc2Cl)c1=O` showed an IFI of 3.48%. `COc1ccccc1N(CC(=O)N1CCCCC1)S(=O)(=O)c1ccccc1` gave an IFI of 0%. With `COC(=O)[C@@H]1C[C@@H](NC(=O)c2ccc(OC)cc2OC)CN1Cc1cccc2ccccc12` the IFI was 0.848%. For `CN(C)c1ccc(C=NNc2nc(N)nc(N)n2)cc1`, the IFI was 7.69%. For `COc1cccc(-c2ccc(O)c(CN(C)CC(O)c3ccccc3)c2)n1` (stereo not given), the IFI was 2.56%. `CN(C)S(=O)(=O)c1ccc(C(=O)Nc2nc3c(ccc4ccccc43)s2)cc1` gave an IFI of 4.54%. Work on `Cn1nc(C(F)(F)F)c(-c2ccc(F)cc2)c1NC(=O)Nc1ccc(F)cc1` yielded an IFI of 3.42%. With `O=[N+]([O-])c1ccc(S(=O)(=O)N2CCN(C(=S)NCCc3ccccc3)CC2)cc1` the IFI was 0%. In the case of `CCOc1cccc2c(C)nc(NC(=N)N)nc12`, the IFI is reported as 0%. With `CC1=C(C(=O)Nc2ccccn2)C(c2ccc(O)cc2)n2ncnc2N1` (stereo not given) the IFI was 0%. `COc1ccc([N+](=O)[O-])cc1N(CC1CO1)S(=O)(=O)c1ccc(C)cc1` (stereo not given) showed an IFI of 0%. For `O=C(O)c1ccc(C=NNc2ccc([N+](=O)[O-])cc2)cc1`, the IFI was 4.32%. `O=C(O)c1ccc(NC(=O)c2ccc(N3C(=O)C4C5C=CC(C5)C4C3=O)cc2)cc1` (stereo not given) gave an IFI of 0%. Compound `OC1(C(F)(F)F)CC(c2ccccc2)=NN1c1nncc(-c2ccccc2)n1` (stereo not given) has an IFI of 0%. Work on `Oc1c(C(Nc2ccccn2)c2cccc(Oc3ccccc3)c2)ccc2cccnc12` (stereo not given) yielded an IFI of 12.3%. `C[n+]1ccccc1C=Cc1cc(Br)ccc1O` gave an IFI of 0%. For `COC(=O)c1cccc(-c2cc(Cl)c3c(c2)CC(CNC(=O)c2c(C)noc2C)O3)c1` (stereo not given), the IFI was 0%. With `CC(C)CN(CC(=O)Nc1cc(C(C)(C)C)nn1-c1ccccc1)C(=O)c1cc(Cl)cc(Cl)c1` the IFI was 1.87%. In the case of `COc1ccc(CN2CCN(C(=O)c3sc4ncn(Cc5ccccc5F)c(=O)c4c3C)CC2)c(OC)c1OC`, the IFI is reported as 1.15%. `CC[n+]1c(C=CN(C)C)sc2ccccc21` gave an IFI of 4.62%. With `CCSc1sc2sccc2[n+]1CC` the IFI was 0%. For `COc1cccc(NC(=O)Cn2c(C)c(C(C)=O)c3ccccc32)c1`, the IFI was 0%. `N#Cc1ccccc1Cn1nc(-c2cccnc2)oc1=O` showed an IFI of 0%. `CCOc1ccc2nc(SCc3nc(N)nc(N4CCOCC4)n3)sc2c1` showed an IFI of 3.66%. `C=CCSc1ncc(-c2ccc(Cl)cc2)n1C` gave an IFI of 1.07%. For `CCCCc1c(C)nc2c(OC)cccc2c1O`, the IFI was 0%. `CCCOC(=O)CSc1nc(N)c(C#N)c(-c2ccco2)c1C#N` gave an IFI of 6.15%. In the case of `COC(=O)c1ccccc1NC(=O)CSc1nc2ccsc2c(=O)n1CCN1CCCC1`, the IFI is reported as 2.27%. `CCN1C=CC(=Cc2ccc3cc(C)ccc3[n+]2C)C=C1` gave an IFI of 15.4%. In the case of `O=C(COC(=O)c1c2c(nc3ccccc13)CCCCCCCCCC2)c1ccc(Cl)cc1`, the IFI is reported as 0%. `CCN1/C(=C/c2sc3ccc(Br)cc3[n+]2CC)C=Cc2ccccc21` showed an IFI of 15.4%. In the case of `CN1CCC(NCCc2ccc(Cl)cc2)CC1`, the IFI is reported as 2.94%. `O=C(Nc1cccnc1)c1cc(-c2cccnc2)nc2ccc(Br)cc12` showed an IFI of 0%. `Cc1nc(N2CCC(C)CC2)c2c(C)c(C(=O)Nc3ccc(F)cc3)sc2n1` gave an IFI of 1.18%. For `Cc1ccc2c(Cl)c(C(=O)N3CC(C)OC(C)C3)sc2c1` (stereo not given), the IFI was 0%. `COc1cccc(OC)c1C(=O)Nc1cc(C(F)(F)F)ccc1Cl` gave an IFI of 1.45%. `Cc1ccc(N2CCN(CCNCc3ccc(F)cc3)[C@@H](Cc3ccc(O)cc3)C2)cc1` showed an IFI of 2.47%. With `CCOC(=O)C1=C(C)NC2=C(C(=O)C(C(=O)OC)C(C)C2)C1c1cc(Br)c(OC)c(OCC)c1` (stereo not given) the IFI was 4.65%. Compound `N=c1c2c(n(Cc3ccc([N+](=O)[O-])cc3)c3c1CCC3)CCCC2` has an IFI of 0%. `Clc1ccc(Nc2nc(NCc3ccco3)c3ccccc3n2)cc1` gave an IFI of 14.3%. In the case of `CC[n+]1c(/C=C/C=C2\N(C)c3ccccc3C2(C)C)n(-c2ccccc2)c2ccc(C)cc21`, the IFI is reported as 21.4%. In the case of `CCCOC(=O)C1=C(C)NC2=C(C(=O)CC(c3ccc(OC)c(OC)c3)C2)C1c1ccccc1C` (stereo not given), the IFI is reported as 3.53%. With `C=CCNc1cc(-c2ccccn2)nc(-c2ccccn2)n1` the IFI was 7.69%. `Cc1ccc(C=NNC(=O)c2nnn(-c3nonc3N)c2-c2ccc([N+](=O)[O-])cc2)cc1` gave an IFI of 0%. Work on `NC(=O)c1ccc2c(c1)N=C(/C=C/c1ccccc1)N(C1CC1)C2` yielded an IFI of 7.41%. `CCOC(=O)c1c(S(=O)(=O)N2CCCC(C(=O)N3CCN(c4cccc(C)c4C)CC3)C2)c(C)n(C)c1C` (stereo not given) gave an IFI of 0%. With `Cc1ccn2c(NC(C)(C)CC(C)(C)C)c(-c3ccccc3OC(=O)/C=C/c3ccc([N+](=O)[O-])cc3)nc2c1` the IFI was 2.8%. In the case of `O=C(NCc1ccc(Cl)cc1)C1CNCC1c1ccc(C(F)(F)F)cc1` (stereo not given), the IFI is reported as 1.43%. Work on `CCOc1ccccc1C=NNc1nc(Nc2ccccc2)nc(Nc2ccccc2)n1` yielded an IFI of 3.9%.
